Out of some 360,000 compounds screened, about 7,500 (2.1%) were called active. This list was built around the results that the source calls inconclusive (neither active nor inactive); the mix of calls is not that of the screen. Calls follow the shape of the dose curve; as a rule, active = well fitted cell-killing curve with a large enough effect; inconclusive = small, poorly fitted or top-dose-only effect, or effect the other way, or another doubt; inactive = no such curve, though single readings can be large or run the other way. Potencies of inconclusive entries are left out as doubtful fits.
test: qHTS for induction of synthetic lethality in tumor cells producing 2HG: qHTS for the HT-1080-IDH1KD cell line; conditions: HT-1080 IDH1 knockdown viability, ATP luminescence, 48 h; activity, negative = toxicity: at 46.1 µM (top of the series) unless noted;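 as to activity, negative = toxicity: 0% = DMSO wells and -100% = cell-free medium wells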
Method in brief: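 Luminescent ATP read-out (CellTiter-Glo, 10 min at room temperature) after 48 h compound exposure at 37 °C gave viability of IDH1-knockdown HT-1080 cells. Activity was normalised to DMSO and cell-free wells, then fitted as concentration-response curves.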
Potency is read from the fitted curve at half-maximal effect; tags tell the direction and shape of the fitted curve.

SMILES | Potency | activity, negative = toxicity
COc1ccc(O)c(/C=N/NC(=S)NCCc2ccccc2)c1 | inconclusive [cytotoxic, single point] | –
CCOC(=O)c1ccc(Nc2nc(C)cc(C)c2C#N)cc1 | – | inactive: -3.52%
Cc1ccc(S(=O)(=O)N(CC(=O)Nc2ccccc2C(=O)O)c2cccc(Cl)c2C)cc1 | inconclusive [cytotoxic, single point] | –
NNC(=O)C(=O)Nc1ccc(O)cc1 | inconclusive [cytotoxic, single point] | –
CN(C)c1nc(SCCOC(=O)COc2ccc(Cl)cc2Cl)nc(N(C)C)n1 | – | inactive: 1.1%
CC(=O)Nc1ccc(NC2=CC(=O)c3ccccc3C2=O)cc1 | inconclusive [cytotoxic, partial curve, poor fit] | –
CCOC(=O)/C=C/C(=O)OCC(=O)Nc1cccc(Cl)c1Cl | – | inactive: -11.1%
COc1ccc(OCC(O)Cn2c(=N)n(Cc3ccccc3)c3ccccc32)cc1 (centres undefined) | active: 11.2 µM | –
COc1ccccc1C(=O)NC(=S)Nc1cccc2cc(O)ccc12 | inconclusive [cytotoxic, single point] | –
Cc1ccc(NC(=O)CSc2nc(C)c(Cc3ccccc3)c(=O)[nH]2)cc1 | inconclusive [cytotoxic, single point] | –
CCCCNC(=O)c1nc(-c2ccccc2)oc1-c1ccc(Cl)cc1 | inconclusive [rising, partial curve] | –
Cc1ccc(S(=O)(=O)n2cc(-c3ccccc3)c(N)n2)cc1 | inconclusive [cytotoxic, single point] | –
CC(C)c1ccc(NC2CCCN(C(=O)c3cccc(N4CCNC4=O)c3)C2)cc1 (centres undefined) | inconclusive [cytotoxic, single point] | –
Cc1nc2ccc(Br)cn2c1NC(C)(C)C | inconclusive [cytotoxic, single point] | –
CC1(C(=O)Nc2cnc3ccccc3c2)CCN1Cc1ccc2ccccc2c1 (centres undefined) | inconclusive [cytotoxic, single point] | –
O=C(N/N=C/c1cccs1)c1n[nH]c2c1CCCC2 | active: 14.6 µM | –
Cc1c(C(=O)Nc2ccc3c(c2)OCCO3)sc2nc(-c3ccccc3)cn12 | inconclusive [cytotoxic, single point] | –
CC(C)C[C@@H](CN1CCC[C@H]1CN1C(=O)C(=O)NC[C@@H]1Cc1ccc(O)cc1)N1C[C@H](Cc2ccccc2)N(CC2CCCCCC2)C(=O)C1=O | inconclusive [cytotoxic, single point] | –
CN(CC1CCCO1)S(=O)(=O)c1ccc(C(=O)Nc2nccs2)cc1 (centres undefined) | – | inactive: -12.2%
Nc1cc(Cl)nc(N/N=C/c2c(O)ccc3ccccc23)n1 | inconclusive [cytotoxic, single point] | –
c1ccc(CCNc2nc(-c3ccccn3)nc3ccccc23)cc1 | inconclusive [cytotoxic, full curve] | –
COc1cc2nc(N3CCCCC3)nc(NC3CCN(C)CC3)c2cc1OC | active: 11.2 µM | –
COc1cc(C(=O)NC2CCN(C)CC2)ccc1Nc1ncc2c(n1)N(C1CCCCC1)CCC(=O)N2C | active: 4.61 µM | –

SMILES | Potency | activity, negative = toxicity
Cc1cc(C(F)(F)F)c2c(N)c(C(=O)NCc3ccc(Cl)cc3)sc2n1 | – | inactive: -1.2%
CCCn1c(/N=C/c2c[nH]c3ccccc23)nc2ccccc21 | inconclusive [cytotoxic, partial curve, poor fit] | –
Cc1cccc(C(=O)Nc2cccc(C(=O)N/N=C/c3ccc4c(c3)OCO4)c2)c1 | inconclusive [cytotoxic, single point] | –
Cc1noc(C)c1-c1ccc(C(=O)NCc2ccc(Cl)cc2)c2occc12 | inconclusive [cytotoxic, single point] | –
CCOc1ccc(S(=O)(=O)NCCC(=O)N2CCN(c3ccccc3O)CC2)cc1 | – | inactive: 0.0137%
O=C(N/N=C/c1cn(-c2ccccc2)nc1-c1cc2ccccc2o1)c1ccccc1Br | active: 11.6 µM | –
S=c1[nH]nc(-c2ccccn2)n1/N=C/c1ccc(-c2ccccc2Br)o1 | inconclusive [cytotoxic, single point] | –
O=[N+]([O-])c1ccc2[nH]c3nc4ccccc4nc3c2c1 | inconclusive [cytotoxic, single point] | –
CCCOP(=O)(OCCC)c1c([N+](=O)[O-])cc(C(F)(F)F)cc1[N+](=O)[O-] | inconclusive [cytotoxic, single point] | –
Fc1ccc2[nH]c3c(N4CCN(Cc5ccc6c(c5)OCO6)CC4)ncnc3c2c1 | active: 23.1 µM | –
CCOc1ccc2oc(C(=O)NCc3ccccc3CN3CCCC3)c(C)c2c1 | inconclusive [cytotoxic, single point] | –
CC1CC2=C(NC(=S)NC2c2ccc(F)cc2)/C(=C/c2ccc(F)cc2)C1 (centres undefined) | inconclusive [cytotoxic, single point] | –
Oc1cccc(-c2nc3ccccc3s2)c1 | inconclusive [cytotoxic, partial curve] | –
Cc1ccc(Cc2c(-c3cccc(Cl)c3)nc3c(C)cc(Br)cn23)cc1 | – | inactive: 1.16%
COc1ccc(CCC(C)NCCc2ccc(Cl)cc2Cl)cc1 (centres undefined) | inconclusive [cytotoxic, single point] | –
Cc1ccc(S(=O)(=O)Nc2cc(C)cn(Cc3ccc(F)cc3)c2=O)cc1 | – | inconclusive: -31.5% [cytotoxic]
CCCCNC(=O)c1ccc(Cn2c(=S)[nH]c3c([nH]c4ccc(OC)cc43)c2=O)cc1 | active: 18.4 µM | –
CCc1nc2ccccc2c(C(=O)OCC(=O)Nc2ccc(S(=O)(=O)N3CCOCC3)cc2)c1C | inconclusive [cytotoxic, single point] | –
COc1cccc(NC(=O)C2(C)CCN2Cc2ccccc2OC(F)F)c1 (centres undefined) | inconclusive [cytotoxic, single point] | –
CCCNC(=O)c1ccc2c(c1)ncn2-c1ccccc1OC | – | inactive: 22.2%
COc1ccc(C(=O)/C(C#N)=N/Nc2cccc([N+](=O)[O-])c2)cc1 | active: 23.1 µM | –
CC(CNC(=O)CCn1c(=O)c2cccn2c2ccc(F)cc21)c1ccccc1 (centres undefined) | – | inactive: 3.35%
Cc1cc(OCc2ccc(C(=O)Nc3ccc(C(=O)O)cc3)o2)ccc1Cl | active: 23.1 µM | –

SMILES | Potency | activity, negative = toxicity
O=[N+]([O-])c1cccnc1N1CCC(c2cc(-c3ccc(Cl)cc3Cl)n[nH]2)CC1 | inconclusive [cytotoxic, single point] | –
COc1ccc(C(=O)c2ccc(N(C)C)cc2)c(OC)c1 | active: 2.51 µM | –
O=C(CCNC(=O)c1ccc(Br)cc1)NNC(=O)c1ccccc1O | inconclusive [cytotoxic, full curve] | –
Cc1cccc(C)c1-n1nnnc1C(c1ccnc2ccccc12)N1CCN(CC(=O)NC(C)C)CC1 (centres undefined) | inconclusive [cytotoxic, single point] | –
CC[C@H]1CCCCc2ccccc2[C@@H](C(=O)C[C@@H](O)CC(C)=O)OC1=O | – | inactive: 4.46%
CC(C)(C)NNC(=S)Nc1cccc(C(F)(F)F)c1 | active: 10.3 µM | –
COc1ccccc1C/C(N)=N/OC(=O)c1cccs1 | – | inactive: -27.2%
CCOC(=O)c1ccccc1NS(=O)(=O)c1ccc(OC)cc1 | inconclusive [cytotoxic, single point] | –
Cc1ccc(-n2c3nc(=O)[nH]c(=O)c-3cc3cc([N+](=O)[O-])ccc32)cc1 | inconclusive [cytotoxic, single point] | –
COc1ccc(C(=O)Cn2nc(CNc3ccc(Br)cc3)[n+]3c2CCCCC3)cc1 | inconclusive [cytotoxic, single point] | –
Cc1ccc(NC(=O)CSc2ncnc3ccccc23)cc1S(=O)(=O)N1CCCCC1 | inconclusive [cytotoxic, single point] | –
COc1ccc(C(=O)Nc2sc(C)c(-c3ccccc3)c2C#N)cc1OC | – | inconclusive: -35.3% [cytotoxic]
O=C(N/N=C\c1ccc(Cl)s1)C1COc2ccccc2O1 (centres undefined) | inconclusive [cytotoxic, single point] | –
COc1cc(CNC(C)(C)CO)cc(Br)c1OCc1ccc(Cl)cc1Cl | active: 16.4 µM | –
Cc1cc(/C=C(\C#N)C(=O)NCC2CCCO2)c(C)n1-c1ccc(Cl)cc1 (centres undefined) | inconclusive [cytotoxic, single point] | –
COc1cccc(-c2sc3ccccc3c2-c2ccc(OCCN(C)C)cc2)c1 | active: 16.4 µM | –
CCN(CC)CCNC(=O)c1ccc(N2CCCCC2)c(NS(=O)(=O)c2ccc(C)cc2)c1 | inconclusive [cytotoxic, partial curve] | –
O=[N+]([O-])c1ccc(-c2ccc(/C=N/Nc3nc(NCc4ccccc4)nc(N4CCOCC4)n3)o2)cc1 | active: 16.4 µM | –
COC(=O)c1ccc(NC(=O)COc2ccc(C3C(C#N)=C(N)Oc4c3ccc3ccccc43)cc2OC)cc1 (centres undefined) | inconclusive [cytotoxic, single point] | –
O=C(OC1CCCCC1)c1ccc(NC(=O)C2CCCCC2)cc1 | inconclusive [cytotoxic, partial curve] | –
Cc1cccnc1NC(=O)c1cccc(S(=O)(=O)N2CCCc3ccccc32)c1 | – | inactive: -4.22%
c1ccc(CNc2nc(-c3ccccc3)nc3ccccc23)cc1 | inconclusive [cytotoxic, single point] | –
CCC(=O)c1ccc2c(c1)N(CCCN(C)C)c1ccccc1S2 | active: 23.1 µM | –

— PubChem BioAssay AID686971 (National Center for Advancing Translational Sciences (NCATS), 2013)
